Consider 89 molecules from article PMC4336329 (PLoS ONE, 2015).

About 14,000 (4.5%) of roughly 310,000 compounds showed an effect of 50% or more. The effect is printed as a negative number. The list shows a part of the results.
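Note: peak tail current of the secondary pulse compared with the same well before compound.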

In this assay the target is human ether-à-go-go-related gene (hERG) potassium channel (human, UniProt Q12809). Briefly: primary screen, population patch clamp on CHO cells stably expressing hERG.
Sequence of human ether-à-go-go-related gene (hERG) potassium channel (Q12809 whole entry, looked up): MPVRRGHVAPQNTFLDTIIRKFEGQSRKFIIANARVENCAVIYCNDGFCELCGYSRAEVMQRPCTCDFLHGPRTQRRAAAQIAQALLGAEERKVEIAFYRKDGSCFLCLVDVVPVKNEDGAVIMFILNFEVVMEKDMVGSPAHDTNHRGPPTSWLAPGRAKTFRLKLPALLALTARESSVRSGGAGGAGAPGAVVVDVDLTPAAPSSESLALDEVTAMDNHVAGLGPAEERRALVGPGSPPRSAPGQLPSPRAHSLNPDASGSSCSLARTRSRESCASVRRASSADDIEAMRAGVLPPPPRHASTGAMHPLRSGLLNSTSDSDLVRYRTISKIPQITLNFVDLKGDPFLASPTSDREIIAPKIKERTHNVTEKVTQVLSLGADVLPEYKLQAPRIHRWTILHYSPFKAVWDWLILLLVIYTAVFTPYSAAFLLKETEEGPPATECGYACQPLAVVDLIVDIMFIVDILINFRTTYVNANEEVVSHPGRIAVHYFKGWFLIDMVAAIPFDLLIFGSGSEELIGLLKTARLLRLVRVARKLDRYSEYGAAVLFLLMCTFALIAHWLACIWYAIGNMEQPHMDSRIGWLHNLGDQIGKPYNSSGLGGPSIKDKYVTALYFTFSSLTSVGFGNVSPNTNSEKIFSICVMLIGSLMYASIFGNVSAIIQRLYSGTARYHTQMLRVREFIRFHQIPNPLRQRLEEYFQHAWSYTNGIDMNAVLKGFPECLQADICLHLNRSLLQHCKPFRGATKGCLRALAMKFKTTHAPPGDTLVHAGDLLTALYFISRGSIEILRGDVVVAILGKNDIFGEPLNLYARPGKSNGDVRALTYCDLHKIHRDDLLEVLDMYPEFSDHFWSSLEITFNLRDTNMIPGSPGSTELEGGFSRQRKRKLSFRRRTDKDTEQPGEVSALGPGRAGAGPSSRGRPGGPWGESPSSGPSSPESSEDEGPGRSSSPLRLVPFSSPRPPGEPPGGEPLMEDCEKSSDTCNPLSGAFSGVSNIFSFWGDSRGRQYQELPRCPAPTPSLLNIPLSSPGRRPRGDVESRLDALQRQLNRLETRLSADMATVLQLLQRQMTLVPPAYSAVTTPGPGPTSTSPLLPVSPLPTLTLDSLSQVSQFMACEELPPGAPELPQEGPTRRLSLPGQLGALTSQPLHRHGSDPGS
For the molecule `CC1CCN(C(=O)CNC(=O)CNS(=O)(=O)c2ccccc2)CC1`, the “hERG current change (%, negative = inhibition) at 10uM” value is reported as 13.2%.

For `CC(=O)N1CCCc2cc(S(=O)(=O)NC(C(=O)NC(C)c3ccccc3)C(C)C)ccc21` (centres unmarked), the “hERG current change (%, negative = inhibition) at 10uM” value is reported as 3.12%. Take `COC(=O)c1cn(-c2ccccc2)nc1-c1cccnc1`: the “hERG current change (%, negative = inhibition) at 10uM” value is -28.5%.

As for `CS(=O)(=O)c1cccc(NC(=O)c2ccc(Cl)c(Cl)c2)c1`, the “hERG current change (%, negative = inhibition) at 10uM” value is recorded as -33.5%. Turning to `CCn1c(CC(=O)Nc2ccc(C)c(Cl)c2)nnc1SCCOc1ccc(OC)cc1`, the “hERG current change (%, negative = inhibition) at 10uM” value was 2.62%.

Turning to `N#C/C(=C/c1ccc(N2CCCCC2)o1)C(=O)Nc1ccc(Cl)cc1`, the “hERG current change (%, negative = inhibition) at 10uM” value is given as 0.106%. With `CCOC(=O)c1ccc(N=Cc2c(O)n(-c3ccccc3F)c(=S)[nH]c2=O)cc1`, the “hERG current change (%, negative = inhibition) at 10uM” value came to 8.22%. The value for `Cc1ccc(S(=O)(=O)N2CCN(C(=O)CC(C)C)CC2)cc1` was 0.37%; that for `CCC(=O)Nc1nnc(/C=C/c2ccccc2)s1` was 1.74%; that for `Cc1ccc(CCN2C(Nc3ccccc3)=NC[C@@H]2C)cc1` was -35.9%.

Turning to `CCN1CCN(c2ncnc3sc(C)c(-c4ccccc4)c23)CC1`, the “hERG current change (%, negative = inhibition) at 10uM” value is -57.1%.

Regarding `COc1cccc(NC(=O)Nc2ccccc2Br)c1`, the “hERG current change (%, negative = inhibition) at 10uM” value came to 19.6%. In the case of `COc1ccccc1[C@@H]1C(c2ccc(F)cc2)=NN(c2ccccc2)[C@H]1C(=O)N1CCOC1=O` it was 11.9%. With `COc1ccc(C(=O)N2CCCC(CCC(=O)NCc3ccccc3F)C2)c(OC)n1` (centres unmarked), the “hERG current change (%, negative = inhibition) at 10uM” value was 13.8%. With `CSCCC(NC(=O)c1ccc([N+](=O)[O-])cc1Cl)C(=O)OCC(=O)N(C)C` (centres unmarked), the “hERG current change (%, negative = inhibition) at 10uM” value is -2.34%. The value for `Cc1ccccc1OCCCC(=O)Nc1ccccc1C(F)(F)F` was -3.72%; that for `O=C(Nc1nc2ccc([N+](=O)[O-])cc2s1)c1ccc(S(=O)(=O)N2CCCc3ccccc32)cc1` was -21.6%; that for `C=CCn1c(SCC#N)nc2sc(CC)cc2c1=O` was -16.5%. As for `Cc1[nH]c2ccc(F)cc2c1CCN(Cc1cccnc1)C(=S)Nc1cccc(F)c1`, the “hERG current change (%, negative = inhibition) at 10uM” value is recorded as -7.74%.

For the molecule `O=[N+]([O-])c1cc([N+](=O)[O-])c(Oc2ccc(F)cc2F)cc1NN1CCCCC1`, the “hERG current change (%, negative = inhibition) at 10uM” value was 8.46%. In the case of `CCOC(=O)c1cc(-c2ccccc2)n(CCC(=O)O)c1C` it was 7.64%; in that of `CC(/C=C/C(=O)c1ccc(C)cc1)=C\c1ccccc1`, 2.2%; in that of `COc1ccc(OC)c(C(c2c(O)nc(SC)[nH]c2=O)c2c(O)nc(SC)[nH]c2=O)c1`, 14%. On to `O=C(c1ccccc1CCc1ccccc1)N1CCCC1`, for which the “hERG current change (%, negative = inhibition) at 10uM” value was 9.12%. Take `NS(=O)(=O)c1ccc(NC(=O)/C=C/c2cccs2)cc1`: the “hERG current change (%, negative = inhibition) at 10uM” value was 9.65%. The value for `Fc1ccc(C2CC(c3cccs3)=NN2C(=S)Nc2ccccc2)cc1` (centres unmarked) was -34.4%; that for `COc1cc(OC)c(NC(=O)c2cccc(F)c2)cc1Cl` was -8.25%. In the case of `Cc1ccccc1N=C/C=C1\N(C)c2ccccc2C1(C)C` it was -70.7%; in that of `CC(=O)c1ccccc1NC(=O)CN1C(=O)CS/C1=C\c1nc(-c2ccc(C)cc2)cs1`, 10.3%.

For the molecule `O=C(N1CCCCC1)C1(c2ccccc2)CCOCC1`, the “hERG current change (%, negative = inhibition) at 10uM” value was found to be 11.6%. In the case of `COc1ccc(OC(=O)c2ccc3nsnc3c2)cc1` it was -6.32%.

Turning to `O=C(c1cccc(C(F)(F)F)c1)C1CCCN(C(=O)CN2CCCC2=O)C1` (centres unmarked), the “hERG current change (%, negative = inhibition) at 10uM” value amounted to 6.18%.

Consider `C=CCOc1ccccc1CNCc1cccnc1.Cl`, for which the “hERG current change (%, negative = inhibition) at 10uM” value was determined as 12.6%. With `CCCCc1c(C)nc2c(OC)cccc2c1SCCC(=O)O`, the “hERG current change (%, negative = inhibition) at 10uM” value is -3.67%. The value for `COC(=O)C1=C(C)N(c2ccc(Br)cc2)C(=O)/C1=C\c1ccco1` was 2.22%. Turning to `COc1cccc(N2CCN(c3ncnc4c3[nH]c3ccccc34)CC2C)c1` (centres unmarked), the “hERG current change (%, negative = inhibition) at 10uM” value is -11.7%. In the case of `CCOC(=O)/C=c1\s/c(=C\c2ccc3cc(OC)ccc3c2)c(=O)n1CC(=O)NCc1ccc2c(c1)OCO2` it was 44%; in that of `COc1ccc(NC(=O)CCCNC(=O)c2ccc(Cl)cc2)c(OC)c1`, -11.6%; in that of `CCOc1ccccc1C(=O)NC(C(=O)Nc1cccnc1)C(C)C` (centres unmarked), -20.3%.

Consider `CCCCOc1nc2ccccc2nc1C(C#N)S(=O)(=O)c1ccccc1` (centres unmarked), for which the “hERG current change (%, negative = inhibition) at 10uM” value is on record as 0.44%. With `N#Cc1c(SCc2ccccc2)nc(N2CCOCC2)c2c1CCCC2`, the “hERG current change (%, negative = inhibition) at 10uM” value is listed as -3.29%. On to `NC(=O)CC1NC(=O)c2ccccc21` (centres unmarked), for which the “hERG current change (%, negative = inhibition) at 10uM” value was 12.5%. For the molecule `O=C(NCCN1CCN(c2ccccc2F)CC1)C1CC(=O)N(C2CCCC2)C1` (centres unmarked), the “hERG current change (%, negative = inhibition) at 10uM” value is recorded as 2.24%. In the case of `COc1ccc(CN2CCC(CO)(Cc3ccccc3)CC2)cc1Cn1cccn1` it was -76.5%; in that of `COCCCC1CCN(C(=O)C2CCC(=O)N(C3CCCCCC3)C2)CC1` (centres unmarked), 3.84%. As to `CC(=O)c1cccc(N/C=C\C(=O)c2ccc(C)cc2)c1`, the “hERG current change (%, negative = inhibition) at 10uM” value was 13.2%.

In the case of `CC(C)C(=O)Nc1ccc(C(=O)NNC(=O)c2ccco2)cc1`, the “hERG current change (%, negative = inhibition) at 10uM” value is recorded as 7.75%. The value for `COC(=O)c1cc(-c2cccs2)nc2ccccc12` was 3.59%; that for `CCN1CCN(CCNC(=O)C2CCN(Cc3nc(-c4ccc(Cl)cc4)oc3C)CC2)CC1` was 1.11%; that for `Cc1cc(C)n(-c2nc3c(c(=O)[nH]c(=O)n3C)n2CCc2ccccc2)n1` was -19.4%. In the case of `COc1ccc(-n2c(Cn3c(=O)sc4ccccc43)nnc2SCC(N)=O)cc1` it was -4.31%; in that of `COc1cc(/C=C(\NC(C)=O)C(=O)O)cc(OC)c1OC`, 12.5%; in that of `COc1ccccc1N1CCN(C(=O)C2CCN(S(=O)(=O)c3ccc4c(c3)CC(C)N4C(C)=O)CC2)CC1` (centres unmarked), 8.94%. Turning to `COC(=O)c1sc2ncn(-n3c(C)ccc3C)c(=O)c2c1C`, the “hERG current change (%, negative = inhibition) at 10uM” value was 19.7%. The value for `O=C1c2ccccc2C(=O)N1CCCCCCc1ccccc1` was 10.5%.

With `S=C(NCCc1ccccc1)N1CCN(C2CCCCC2)CC1`, the “hERG current change (%, negative = inhibition) at 10uM” value is reported as -63.4%. The value for `O=C(O)c1ccccc1OCCOc1ccccc1C(=O)O` was 23.9%; that for `CCOc1ccc2ccccc2c1/C=N/NC(=O)c1cc(C)[nH]n1` was 8.11%.

`COc1ccc2c(c1OC)C(=O)N1C2SC(C)(C)[C@H]1C(=O)NCC(C)C` (some centres unmarked): the “hERG current change (%, negative = inhibition) at 10uM” value was found to be 21.9%. The value for `O=C(CN(Cc1ccccc1)S(=O)(=O)c1ccc2c(c1)OCCO2)N/N=C/c1ccc(F)cc1` was 3.7%; that for `Cc1cc(Cl)ccc1OCC(=O)Nc1ccccc1CO` was 3.7%; that for `Cc1cc(C)nc(NS(=O)(=O)c2ccc(NC(=O)Cc3ccccc3F)cc2)n1` was 4.74%. The value for `Cc1cccc(C)c1NC(=O)Nc1cccs1` was 20.7%; that for `COc1ncccc1C(=O)N1CCCC(C(=O)c2cc(F)ccc2F)C1` (centres unmarked) was -9.02%. `Cc1cccc(NC(=O)CCN2CCC(C(N)=O)CC2)c1`: the “hERG current change (%, negative = inhibition) at 10uM” value was 9.57%. For the molecule `Cc1cc(C)c2[nH]c(=O)c(CN(CC3CCCO3)C(=S)Nc3ccccc3)cc2c1` (centres unmarked), the “hERG current change (%, negative = inhibition) at 10uM” value turned out to be 2.37%. In the case of `CCc1cccc(C)c1NC(=O)CSc1nc(C)c(C)o1` it was 17.2%; in that of `CCOC(=O)c1cccc(NC(=O)COC)c1`, 13.5%; in that of `COc1ccc(C2SCC(=O)N2c2nc3ccccc3s2)cc1` (centres unmarked), 10.1%. `CN(CC(=O)NCc1ccc(F)cc1)Cc1ccc(Br)cc1`: the “hERG current change (%, negative = inhibition) at 10uM” value is -35.5%. In the case of `Cc1cccc(NC(=O)c2cccc(N3C(=O)CCC3=O)c2)c1` it was -3.89%; in that of `CC(OC(=O)Cn1[nH]c(=O)c2ccccc2c1=O)C(=O)Nc1cccc(Cl)c1` (centres unmarked), -17.2%. Turning to `COc1ccc(-c2cc(-c3ccc(O)cc3)nc(N)c2C#N)cc1OC`, the “hERG current change (%, negative = inhibition) at 10uM” value was -12%. Regarding `Cc1ccc(-n2nnnc2-c2ccco2)cc1`, the “hERG current change (%, negative = inhibition) at 10uM” value is -2.37%.

Consider `COc1ccc(-c2ccc3c(c2)S(=O)(=O)c2cccc(C(=O)NC4CCCCC4)c2C3=O)cc1OC`, for which the “hERG current change (%, negative = inhibition) at 10uM” value turned out to be 19.3%. `Cc1ccccc1C(=O)NCC(=O)OCC(=O)NC(C)C1CC2CCC1C2` (centres unmarked): the “hERG current change (%, negative = inhibition) at 10uM” value was -6.52%. For the molecule `COC(CNC(=O)C(=O)NCC1CCCN1S(=O)(=O)c1cccs1)OC` (centres unmarked), the “hERG current change (%, negative = inhibition) at 10uM” value is given as -5.67%. In the case of `COCCNC(=O)CCc1nc(-c2ccccc2)no1` it was 13.9%; in that of `Cc1ccc2c(c1)CCCN2CC(=O)N(C)c1c(N)n(Cc2ccccc2)c(=O)[nH]c1=O`, 9.08%. The value for `CN(Cc1ccccc1)C1=CC(=[N+]2CCCC2)CC(C)(C)C1.[I-]` was -55.4%; that for `O=C(OCc1cccc([N+](=O)[O-])c1)c1ccc2ccccc2n1` was 7.33%; that for `O=C(NCCC1=CCCCC1)C1CCN(C(=O)c2ccc(Cl)cc2)CC1` was -35.7%. The value for `O=C(/C=C/c1ccc(Cl)c(Cl)c1)Nc1cccnc1` was -0.371%. For the molecule `CNC(=S)SCCOc1ccccc1`, the “hERG current change (%, negative = inhibition) at 10uM” value is recorded as -4.52%. `COc1ccc(OC)c(S(=O)(=O)N2CCCC(C(=O)N3CCCCCC3)C2)c1` (centres unmarked): the “hERG current change (%, negative = inhibition) at 10uM” value is recorded as -9.84%.

On to `O=C(COc1ccc2ccc(=O)oc2c1)N1CCN(C(=O)C2COc3ccccc3O2)CC1` (centres unmarked), for which the “hERG current change (%, negative = inhibition) at 10uM” value is on record as -46.2%. For the molecule `CCOC(=O)N1CCN(C(=O)C2CCN(S(=O)(=O)c3ccc(Cl)cc3)CC2)CC1`, the “hERG current change (%, negative = inhibition) at 10uM” value was -48.7%.

With `CCN(CC)S(=O)(=O)c1ccc(C(=O)OCCN2C(=O)CCC2=O)cc1`, the “hERG current change (%, negative = inhibition) at 10uM” value is -7.82%.

In the case of `O=C(O)c1cc2nc3c(c(C(F)(F)F)n2n1)CCc1ccccc1-3`, the “hERG current change (%, negative = inhibition) at 10uM” value is 6.54%.
